In PubChem BioAssay AID720709 (National Center for Advancing Translational Sciences (NCATS), 2013):
In all, about 360,000 compounds went through this assay and about 520 (0.14%) were called active. This list was built around the results that the source calls inconclusive (neither active nor inactive); the mix of calls is not that of the screen. The call rests on the fitted dose curve; in most records, active means well fitted inhibition curve with a large enough effect; inconclusive means small, poorly fitted or top-dose-only effect; inactive means no such curve, though single readings can be large or run the other way. Potencies of inconclusive entries are left out as doubtful fits.
Further: nearly all actives have a fitted effect of over 50% in size.
Potency means the concentration at half of the fitted maximal effect; tags describe the fitted curve by direction and shape.

The compounds below were run against Rap guanine nucleotide exchange factor 3 (Homo sapiens) (UniProt O95398) (assay: qHTS for Antagonist of cAMP-regulated guanine nucleotide exchange factor 3 (EPAC1): primary screen). Conditions: EPAC1 GEF assay, Rap1b-BODIPY-GDP exchange fluorescence; series mostly up to 115 µM.
Chain of UniProt O95398 (O95398 whole entry, looked up): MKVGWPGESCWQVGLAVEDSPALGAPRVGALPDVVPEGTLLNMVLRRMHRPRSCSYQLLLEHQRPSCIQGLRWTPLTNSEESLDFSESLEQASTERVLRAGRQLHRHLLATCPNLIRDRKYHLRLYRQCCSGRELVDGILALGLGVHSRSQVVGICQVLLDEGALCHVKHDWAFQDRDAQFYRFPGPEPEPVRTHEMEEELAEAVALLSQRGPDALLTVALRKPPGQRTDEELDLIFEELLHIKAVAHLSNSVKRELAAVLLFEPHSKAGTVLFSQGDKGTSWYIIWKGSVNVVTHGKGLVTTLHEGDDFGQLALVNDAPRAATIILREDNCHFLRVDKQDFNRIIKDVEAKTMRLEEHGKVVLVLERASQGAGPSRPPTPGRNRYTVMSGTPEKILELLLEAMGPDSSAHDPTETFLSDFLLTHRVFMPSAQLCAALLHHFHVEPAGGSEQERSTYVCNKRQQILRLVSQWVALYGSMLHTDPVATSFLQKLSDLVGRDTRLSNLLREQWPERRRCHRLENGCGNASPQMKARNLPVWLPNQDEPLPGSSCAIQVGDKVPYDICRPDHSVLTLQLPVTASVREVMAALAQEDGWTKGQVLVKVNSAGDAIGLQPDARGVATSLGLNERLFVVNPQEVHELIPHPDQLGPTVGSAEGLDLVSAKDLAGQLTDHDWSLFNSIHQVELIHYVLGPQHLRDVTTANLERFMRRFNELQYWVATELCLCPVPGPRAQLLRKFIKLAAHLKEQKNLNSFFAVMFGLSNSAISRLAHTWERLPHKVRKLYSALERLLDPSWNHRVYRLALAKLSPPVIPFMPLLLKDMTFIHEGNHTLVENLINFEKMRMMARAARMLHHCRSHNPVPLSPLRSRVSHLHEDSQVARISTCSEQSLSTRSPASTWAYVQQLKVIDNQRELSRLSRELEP
With `O=C(CN1C(=O)NC2(CCCC2)C1=O)Nc1nc2ccccc2[nH]1` the Potency was “inactive”.
In the case of `O=C(/C=C/c1ccc(Cl)cc1Cl)Nc1cccc(S(=O)(=O)NC2=NCCC2)c1`, the Potency is reported as inconclusive [inhibitor, single point].
In the case of `O=c1oc2ccccc2c2oc3cc(O)c(O)cc3c12`, the Potency is reported as inconclusive [inhibitor, full curve].
For `c1ccc(CNc2nc(N3CCN(Cc4ccccc4)CC3)nc3ccccc23)cc1`, the Potency was inconclusive [inhibitor, single point].
`Cc1cc(=O)n2[nH]c(-c3sccc3-n3c(C)ccc3C)cc2n1` was tested, and the Potency was inconclusive [inhibitor, partial curve].
In the case of `CCC(CN(C)C)Oc1cc(NCc2ccccc2)c2ncn(C(C)C)c2c1` (configuration not stated), the Potency is reported as inconclusive [inhibitor, partial curve].
For `O=C(Cn1cc(C(=O)C(F)(F)F)c2ccccc21)NCc1ccco1`, the Potency was inconclusive [inhibitor, full curve].
For `Cn1c2ccccc2c2c(C(=O)N3CCN(c4ccccc4)CC3)cn(C3CCCC3)c(=O)c21`, the Potency was inconclusive [inhibitor, partial curve].
For `COc1ccc(C(=O)/C=C/c2ccccc2)c(O)c1`, the Potency was inconclusive [inhibitor, partial curve].
`CCn1c(CN(C)c2ccccc2)nc2ccccc21` was tested, and the Potency was inconclusive [inhibitor, single point].
`COc1ccc(/C=N/NC(=S)NCc2ccccc2)cc1OC` was tested, and the Potency was inconclusive [inhibitor, full curve, poor fit].
For `O=C(CN(c1ccccc1)S(=O)(=O)c1ccccc1)NCCSc1ccccn1`, the Potency was inconclusive [inhibitor, partial curve].
For `COc1ccc(N2CCN(C(CNC(=O)OCc3ccccc3)c3ccco3)CC2)cc1` (configuration not stated), the Potency was inconclusive [inhibitor, partial curve].
In the case of `CC1=Nc2cccc3cccc(c23)N1C`, the Potency is reported as “inactive”.
In the case of `C#CCOCCOCCOCCNc1nc(N2CCN(C(=O)CCCCCCCCCCNC(=O)[C@H](CCCCN)n3cc(C[C@@H](C)CC)nn3)CC2)nc(N2CCN(C(=O)CCCCCCCCCCNC(=O)[C@@H]([C@H](C)O)n3cc(C)nn3)CC2)n1`, the Potency is reported as inconclusive [inhibitor, partial curve, poor fit].
`Cc1ccc([N+](=O)[O-])cc1NC(=S)NCCc1ccccc1` was tested, and the Potency was inconclusive [inhibitor, single point].
`CC(NC1=CC(=O)c2cccnc2C1=O)C(O)c1ccccc1` (configuration not stated) was tested, and the Potency was inconclusive [inhibitor, partial curve].
